B1: LINE1-mini (parent)
chain: GGCAGAGCUCAACACAGCGUGGCAAAGUGGCUGUGGCUAGACUGCC

Read counts are not given, so values of variants with three or more changes are uncertain.

In this data set the parent is B1. Description: self-cleavage, relative activity (ratio to wild type); higher = more cleavage; in vitro, sequencing; the parent is a self-cleaving ribozyme.
Take A12C A25U A26C G27A G35A: the self-cleavage came to 0.11.
With A12G G17C A25G G40A the figure was 0.01; with A12C A26U A41U, 0.01.
With A12G G17A G22U U28C G29A C46U the figure was 0.06; with A12C G40U U43G G44U, 0.01.
Under A12G G27A G44C stands 0.03; under A12C C18G U28G G33C G36A, 0.
As to A12G A14C C15U U20C, the self-cleavage was found to be 0.01.
With A12C G21U G22A A26C G36U C37U G40A the figure was 0.14.
As to A12C C15U A26C, the self-cleavage amounted to 0.04.
As to A12G G29A A39G, the self-cleavage stood at 0.02.
With A12G C13A C23A the figure was 0.38; with A12G C31G U32A C46A, 0.02; with A12C U28C G29A U32G G40A, 0.
On to A12G C23A U32C A39C C45U C46U, for which the self-cleavage is 0.04.
For the variant A12C A26C A39C, the self-cleavage turned out to be 0.
Under A12G G17A C23U G33A stands 0.09; under A12G C31A U38A, 0.03; under A12G C18A G22A A26U, 0.01.
With A12C U20C C45A the figure was 0.01; with A12C G40U C45A, 0.
Under A12G U20G G22A U28G G30U G36U stands 0.01; under A12C G19C G21C G35A, 0.1.
For the variant A12G C13A G27C A41C, the self-cleavage was 0.02.
With A12G C15G G33U, the self-cleavage came out at 0.02.
With A12C G19A C23G A39G the figure was 0.01.
Take A12G C15A C18G: the self-cleavage came out at 0.3.
With A12G G17A A25U G35U C37U the figure was 0.08; with A12G C15A C31A U38A, 0.01.
As to A12C C13A C23U, the self-cleavage came to 0.03.
A12C C15U A16C: the self-cleavage stood at 0.
Under A12G C18G G30A C45G stands 0.06; under A12G G29U C37A C46U, 0.42.
Under A12G C15G G17U C31A U34C stands 0.13; under A12G C13G G22C A25U A39G, 0.03.
For the variant A12C C15A G17U A26G G33U G35A, the self-cleavage was 0.02.
With A12G C23U C31U G36U U38A the figure was 0.06.
Under A12C U20G A24U U34A stands 0; under A12C U20G G35U, 0.
Under A12G U20A A24U G36C U38C G44C stands 0.01.
As for A12G G30C A41C, the self-cleavage is 0.
With A12C A24U C31U the figure was 0.02; with A12C A24U C31A, 0.01.
Under A12C C23A C42G stands 0; under A12C C15A U38C, 0.01; under A12C G29C U32C, 0.02.
Under A12G C31A G36U stands 0.02; under A12G C23U A26U G33U A39U, 0.02.
Take A12C C23A A39U C42U: the self-cleavage was 0.01.
As to A12C A26G A41U, the self-cleavage stood at 0.
Under A12C G19A G21U U43C stands 0; under A12C U28C U34G C37U G40A, 0.02.
For A12C G27A U28C U38C, the self-cleavage was determined as 0.
With A12G G29U C37G the figure was 0.02.
With A12C G30C G35U G36C C42A the figure was 0.
With A12G A16C A39U the figure was 0.02; with A12C G29A C31U, 0.02.
As to A12G C18A U20C U28A A41C, the self-cleavage came out at 0.01.
A12C C15A G27C C45G: the self-cleavage came to 0.02.
As to A12G G19U U20A, the self-cleavage came out at 0.02.
Under A12C G17A C23A C42G C46U stands 0.01; under A12G G17U A24C, 0.02; under A12C U28A C37A, 0.02.
As to A12C G22C A25G C46U, the self-cleavage was 0.01.
With A12C G17C G22U G29C G35U the figure was 0.02.
With A12G G21U A26G G29U the figure was 0.02.
Under A12C U43G C45A stands 0.01; under A12C G21C C45G, 0.
For A12G U20A G21U, the self-cleavage worked out at 0.04.
As for A12C G17C G36A A41C, the self-cleavage was found to be 0.02.
With A12C C13U A25C G36U the figure was 0.03.
With A12G G21U C42A the figure was 0.03; with A12G G22U C23U G30U A41C C42U, 0.03.
With A12C A25C U38A the figure was 0.01; with A12G C13U G33U, 0.03.
Take A12G G19C U32A C37G: the self-cleavage came to 0.02.
Under A12G A14G A26G stands 0.01; under A12G G17A G36U, 0.07.
As to A12C G29A C42U, the self-cleavage came to 0.01.
Turning to A12G A26C C37U G44U, the self-cleavage worked out at 0.03.
Consider A12C U20G G44A, for which the self-cleavage was found to be 0.03.
With A12G G22A G30U the figure was 0.04; with A12C G17U U34A, 0.
Under A12C C13A U28A U34A stands 0.01; under A12C C23A G33A, 0.04.
Under A12G G17C A26C G27C stands 0.09.
Take A12G C23U C37G: the self-cleavage stood at 0.03.
As to A12C C18U G29U G44U, the self-cleavage came out at 0.01.
Under A12G A14C C46U stands 0.01; under A12C G19C C31A, 0.01; under A12G A26G U28A G29C, 0.04.
Under A12G C15G C31G U34A stands 0.02; under A12C G33A C42A, 0.25.
With A12C U20C G30U C42U the figure was 0; with A12G G21A G30A, 0.02.
A12G G27A C31A: the self-cleavage was 0.02.
Take A12C U32G G40U C42U C45U: the self-cleavage amounted to 0.
For the variant A12C C15A G19C, the self-cleavage was found to be 0.09.
With A12G G21C G40A the figure was 0.02; with A12C A16U C46A, 0.03; with A12G A16C C23G G29A A39U, 0.04.
With A12C C37U U38A the figure was 0.01; with A12G C42A U43C, 0.04.
With A12C C31U C37G the figure was 0.02.
As for A12G C18A C42U, the self-cleavage amounted to 0.04.
Take A12G G21A C37A: the self-cleavage was determined as 0.14.
With A12C G17U G35A the figure was 0; with A12G G19A C23U, 0.01.
As for A12C C13G C15A A26G A39G A41U, the self-cleavage was determined as 0.02.
With A12C C15A G29A C37A C46U the figure was 0.01.
Under A12C A24C G35U stands 0.05; under A12G C15A G36U G40C, 0.01; under A12C C13A G40A G44C, 0.04.
With A12G G17C U34G C37A C46A the figure was 0.02; with A12C G19A A25G, 0.01.
Regarding A12G G17C U20C G29U G44U C46A, the self-cleavage came out at 0.38.
A12C A25G U32C: the self-cleavage worked out at 0.03.
Under A12G A14G A41U stands 0.04; under A12C G33C C37G, 0.01; under A12C A16G G22U U38A A41G, 0.03.
With A12C G19A G30U G35A C45A the figure was 0.07; with A12C C13A G19U A26G G30C G44U, 0.01.
With A12G G33C G44A the figure was 0.02; with A12C G17C A41C, 0; with A12G G22A C37G C46A, 0.01.
With A12G U20C G22C C23A, the self-cleavage came to 0.02.
For the variant A12G G21C C23U, the self-cleavage was 0.
Under A12C G22U C45G stands 0.04.
Under A12C C13U C18G G19U A26U G27A stands 0.14; under A12G C13U A26U G27C, 0.05.
Under A12C C18U G21U G29A stands 0.02; under A12C C15U G21A, 0.03.
As to A12C C15G G22C, the self-cleavage was 0.01.
As for A12C G21A G22C A24C C37G, the self-cleavage came out at 0.
As to A12C U20A G30C, the self-cleavage came to 0.01.
With A12G C18A G30U U32C G35U C37U A41G the figure was 0.01.
For A12G A16U G36U U38C, the self-cleavage stood at 0.01.
Consider A12C G19U C45U, for which the self-cleavage was 0.01.
Under A12C A16G U28A C42G stands 0.03; under A12C C15A G29U G33U, 0.04.
With A12C C13G C31G G33C A41G the figure was 0.01.
Under A12C G29U U38G C42G stands 0; under A12C G19U G21U G27A U32A A39G, 0.01; under A12G G40C C42A, 0.01.
With A12G C15U G19A, the self-cleavage was determined as 0.01.
With A12G C15A C31G the figure was 0.02; with A12C U20G G40C, 0.02.
With A12G G21A C37A G44C the figure was 0.08; with A12C G17U U32A C37U, 0.02; with A12G C23G U34C G40U, 0.01.
In the case of A12C U20C G22A A25C U38G, the self-cleavage was determined as 0.02.
In the case of A12G C13U A16U, the self-cleavage was 0.02.
With A12G C13G C18G U43C, the self-cleavage was found to be 0.01.
Under A12G A16C C23U stands 0.01.
With A12C A16U G30U the figure was 0.02; with A12G G17A C23A, 0.01.
With A12G C15U G17A A24G A25C G44A the figure was 0.06; with A12G G17C G44U, 0.01; with A12C U20G U34A G36U A41C, 0.01.
In the case of A12C C23U A39G G40A G44U, the self-cleavage worked out at 0.01.
With A12G C18U A26U C31G C42A the figure was 0.04; with A12G A14G C31U U34G C42A U43G, 0.02.
With A12G U20C G29U C45A the figure was 0.01.
Consider A12G C18A U43A, for which the self-cleavage came out at 0.01.
Under A12C G17C G27U G29U stands 0.03.
As for A12G C18A U32C A41G C45A, the self-cleavage was 0.05.
Under A12C A25U A26U U28G stands 0.

For the origin of these results see the RNAGym collection of RNA variant scans (doi:10.7554/elife.90254).
